Out of some 310,000 compounds screened, about 14,000 (4.5%) showed an effect of 50% or more. Effects have a minus sign here. The list shows a part of the results.
Target: human ether-à-go-go-related gene (hERG) potassium channel (human, UniProt Q12809)
Test: primary screen, population patch clamp on CHO cells stably expressing hERG
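Further: peak tail current of the secondary pulse compared with the same well before compound.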

Sequence of human ether-à-go-go-related gene (hERG) potassium channel (Q12809 whole entry, looked up): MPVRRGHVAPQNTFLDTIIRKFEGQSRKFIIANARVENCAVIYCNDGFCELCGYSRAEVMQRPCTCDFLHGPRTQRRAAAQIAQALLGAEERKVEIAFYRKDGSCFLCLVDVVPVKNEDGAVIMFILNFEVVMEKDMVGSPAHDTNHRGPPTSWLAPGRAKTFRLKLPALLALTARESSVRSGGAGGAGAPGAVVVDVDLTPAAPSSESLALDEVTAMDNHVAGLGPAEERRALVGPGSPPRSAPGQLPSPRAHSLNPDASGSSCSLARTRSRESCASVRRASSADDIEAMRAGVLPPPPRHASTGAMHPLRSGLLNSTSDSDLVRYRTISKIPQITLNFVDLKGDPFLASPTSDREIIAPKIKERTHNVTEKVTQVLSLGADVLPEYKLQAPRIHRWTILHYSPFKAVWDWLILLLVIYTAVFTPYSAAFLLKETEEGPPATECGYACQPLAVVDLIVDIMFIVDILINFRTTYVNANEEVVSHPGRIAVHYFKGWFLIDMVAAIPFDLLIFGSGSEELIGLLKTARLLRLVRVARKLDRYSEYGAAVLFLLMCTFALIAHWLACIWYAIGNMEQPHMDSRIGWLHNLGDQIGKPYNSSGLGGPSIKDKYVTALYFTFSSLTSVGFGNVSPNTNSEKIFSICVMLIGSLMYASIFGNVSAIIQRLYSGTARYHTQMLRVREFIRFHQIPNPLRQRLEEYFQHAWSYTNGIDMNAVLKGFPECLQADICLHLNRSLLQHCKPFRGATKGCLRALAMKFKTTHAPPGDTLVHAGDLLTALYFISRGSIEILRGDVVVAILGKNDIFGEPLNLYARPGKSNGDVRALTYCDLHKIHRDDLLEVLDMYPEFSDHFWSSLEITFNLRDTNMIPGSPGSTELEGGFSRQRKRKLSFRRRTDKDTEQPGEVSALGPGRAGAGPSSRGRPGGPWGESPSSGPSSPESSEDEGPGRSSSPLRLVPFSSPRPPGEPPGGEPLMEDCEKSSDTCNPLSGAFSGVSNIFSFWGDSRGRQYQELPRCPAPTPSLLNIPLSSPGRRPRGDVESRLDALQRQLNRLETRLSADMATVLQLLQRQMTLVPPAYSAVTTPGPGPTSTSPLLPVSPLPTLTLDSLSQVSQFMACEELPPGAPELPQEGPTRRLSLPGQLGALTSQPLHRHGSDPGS

Row | SMILES | hERG current change (%, negative = inhibition) at 10uM
1 | COc1ccc([C@H]2CC(=O)C=C(c3cccc(OCc4ccccc4)c3)C2)cc1 | 10.8%
2 | N#CC(C#N)=NNc1ccc(S(N)(=O)=O)cc1 | 6.28%
3 | Nc1c(C(=O)O)cnc2c(-c3ccc(Cl)cc3)cnn12 | 45.3%
4 | COc1ccc(NC(=O)CSc2nccn2-c2ccccc2)cc1 | -17.8%
5 | COc1cccc(CC(=O)Nc2ccccc2C(=O)N2CCOCC2)c1 | 15.3%
6 | CCOC(=O)c1[nH]c2ccccc2c1NC(=S)Nc1cc(C)ccc1C | -1.47%
7 | CC(C(=O)Nc1ccc([N+](=O)[O-])cc1Cl)N1CCN(S(=O)(=O)c2cccs2)CC1 (centres unmarked) | -40.2%
8 | CCCn1c2ccccc2c2cnn(CC(=O)NCCCN3C(C)CCCC3C)c(=O)c21 (centres unmarked) | -41.8%
9 | O=C(C(=O)N1CCN(c2ccccc2F)CC1)c1c[nH]c2ccccc12 | -26%
10 | COc1ccc(NC(=O)C(Cc2cc(C)cc(C)c2)C(C)C(=O)O)cc1 (centres unmarked) | 0.845%
11 | CC(C)OC(=O)c1cc2c(ccn2C)n1CC(=O)N(Cc1ccccc1)c1ccccc1 | 12.2%
12 | O=C(COc1coc(CN2CCN(c3ccccc3)CC2)cc1=O)NC1CCCCC1 | -46.1%
13 | O=C(OCc1cccc([N+](=O)[O-])c1)c1cccnc1 | -19.4%
14 | CC(=O)C1=C(O)C(=O)N(CCc2c[nH]c3ccccc23)C1c1ccc(O)cc1 (centres unmarked) | 6.64%
15 | O=C(NCCc1ccccc1)C(=O)c1c(-c2ccccc2)[nH]c2ccccc12 | 3.69%
16 | Cc1ccc(S(=O)(=O)/C(C#N)=C/c2ccccc2OCc2ccccc2)cc1 | 4.81%
17 | CCN(C(=O)CSc1cc(C)c2cccc(C)c2n1)C1CCS(=O)(=O)C1 (centres unmarked) | 16.3%
18 | O=C(O)CCSCC(=O)c1ccc2c(c1)OCCO2 | 9.15%
19 | CC(C)(C)c1cc(CCC(=O)NCCc2ccccn2)cc(C(C)(C)C)c1O | 4.17%
20 | COc1ccc(NC(=O)CSc2nc3ccccc3c(=O)[nH]2)cc1S(N)(=O)=O | -0.505%
21 | COc1ccc(NC(=O)C2CCN(S(=O)(=O)c3c(C)nn(C)c3C)CC2)cc1 | 15.7%
22 | COc1ccc(Cn2nnnc2CN2CCC(O)(c3ccc(F)cc3)CC2)cc1 | -14.5%
23 | CC(=O)c1cccc(NC(=O)Nc2c(C)nn(C)c2C)c1 | 24.4%

Row | SMILES | hERG current change (%, negative = inhibition) at 10uM
24 | CC1CCC/C(=N\NC(=O)COc2ccccc2Cl)C1 (centres unmarked) | 12.3%
25 | COc1ccc(N(CC(=O)NCc2cccs2)S(=O)(=O)c2c(C)n[nH]c2C)cc1 | -3.7%
26 | Cc1cccc(-n2nnnc2SCC(=O)NCC2(N3CCOCC3)CCCCC2)c1C | -57.9%
27 | Fc1ccc(C2CC(c3ccco3)=NN2c2ccccc2)cc1 (centres unmarked) | 7.8%
28 | C/C(=N\NC(=S)Nc1c(C)cccc1C)c1ccc(O)cc1 | -9.41%
29 | Nc1c(C(=O)Nc2ccc(Cl)cc2)oc2ccccc12 | -3.23%
30 | COc1ccc(Oc2c(Cl)cnn(-c3ccccc3)c2=O)cc1 | -18.3%
31 | O=C(Cn1cccn1)N1CCCC(N2CCN(Cc3ccc4c(c3)OCO4)CC2)C1 (centres unmarked) | 3%
32 | Cc1csc(=O)n1CC(=O)Nc1ccc(Cl)cc1F | -7.74%
33 | Cc1ccc(S(=O)(=O)Nc2cccc(NC(=O)CN3CCCCC3)c2)cc1.O=C(O)C(=O)O | -14.7%
34 | Cc1nc(S(=O)(=O)c2cccc(Cl)c2)nc2c1CCC2 | -3.94%
35 | O=C1c2ccc([N+](=O)[O-])cc2C(=O)N1c1ccc(Cl)cn1 | 39.2%
36 | Cc1cc(-c2ccc(S(=O)(=O)N(C)Cc3ccccc3)cc2)on1 | 10.4%
37 | O=C(Nc1ccc(N2CCCC2)cc1)c1cccc(Cl)c1 | 27.1%
38 | CCn1cc(C(=O)Nc2ccc(F)c(F)c2)cn1 | 7.43%
39 | COc1ccc(CNS(=O)(=O)c2cc(-c3cc(C)no3)ccc2C(C)C)cc1 | -14.9%
40 | O=C([O-])CC1S/C(=N/N=C/C=C/c2ccccc2)NC1=O.[Na+] (centres unmarked) | 5.14%
41 | CNC(=S)N(CCc1ccccc1)Cc1cc2cc(OC)c(OC)cc2[nH]c1=O | -22.3%
42 | CC1CCN(c2ccc3nnc(CCC(=O)Nc4ccc(F)c(F)c4)n3n2)CC1 | 5.64%
43 | CC(C)n1nc(C(=O)Nc2nc3ccccc3[nH]2)c2ccccc2c1=O | -35.8%
44 | CCCCc1cc2c(s1)CCCC/C2=N/O | -8.82%
45 | O=C(c1ccc(F)cc1)n1cc(C(=S)N2CCOCC2)c2ccccc21 | 5.62%
46 | COC(=O)N1C(=O)[C@](c2ccc(Cl)cc2)(C(C)C)N1C(=O)OC | 7.07%

Row | SMILES | hERG current change (%, negative = inhibition) at 10uM
47 | CCC(C)(C)C1CCC(=NNC(=O)c2ccoc2C)CC1 (centres unmarked) | 6.38%
48 | C=CC(O)(C#CCN(CC)CC)c1ccccc1 (centres unmarked) | -12.6%
49 | C/C(=N/NC(=O)c1cc(C(C)C)[nH]n1)c1cccs1 | 7.16%
50 | CCOC(=O)[C@@H]1[C@H]2COc3ccccc3[C@@H]2N2C(=O)N(c3ccc(C(F)(F)F)cc3)C(=O)[C@]12C | -25.3%
51 | CSCCCNC(=S)N(C)CC(=O)Nc1ccc(C)cc1 | 22.1%
52 | CC1CCc2sc(C(=O)NCc3ccc(F)cc3)cc2C1 (centres unmarked) | -7.02%
53 | O=C(Nc1ccc2c(c1)OCCO2)C(=O)NC1CC1 | 7.97%
54 | CC(NCc1cccn1C)c1ccccc1.Cl (centres unmarked) | -7.72%
55 | Cc1ccc(NC(=S)N2CCN(S(C)(=O)=O)CC2)cc1C | 11.3%
56 | CC(C)OC(=O)c1cc(NC(=S)Nc2ccc([N+](=O)[O-])cc2)cc(C(=O)OC(C)C)c1 | 18.4%
57 | C=CCn1c(C)cc(C(=O)COC(=O)C2CC(=O)N(CCc3ccc(OC)c(OC)c3)C2)c1C (centres unmarked) | -0.34%
58 | COc1ccc(NC(=O)c2cc(S(=O)(=O)N3CCOCC3)ccc2N2CCOCC2)cc1 | -7.89%
59 | O=C1CN(c2nc(-c3cccnc3)nc3scc(-c4ccccc4)c23)CCN1 | -19.9%
60 | Cc1ccccc1NC(=O)Cc1nc(COC(=O)c2cc(Br)ccc2O)cs1 | 5.79%
61 | COc1cc([N+](=O)[O-])ccc1NC(=O)CN1CCN(C(=O)c2ccco2)CC1 | -78.4%
62 | Cc1ccnc(NC(=O)CNC(=O)c2ccc3ccccc3c2)c1 | -12.5%
63 | CCCCn1c(N)c(N(CCC(C)C)C(=O)CC2CCCCC2)c(=O)[nH]c1=O | 10.9%
64 | COc1cc(-c2ccccc2)nc2ccccc12 | -23%
65 | N#CC1=C2SCN(c3ccccc3)CN2C(=O)CC1c1ccccc1Cl (centres unmarked) | 16.2%
66 | O=C(COc1ccccc1)NCc1n[nH]c(=S)n1-c1ccccc1 | 17.5%
67 | O=C1CSC(c2ccc([N+](=O)[O-])cc2)N1c1ccccc1 (centres unmarked) | -24.8%
68 | Fc1ccccc1OCCCCn1cncn1 | -5.81%
69 | Cc1ccc(C(=O)NCc2ccco2)c(C)c1 | 20.5%

Row | SMILES | hERG current change (%, negative = inhibition) at 10uM
70 | O=C(NCc1ccc2c(c1)OCO2)c1cc(-c2cc(Cl)ccc2O)n[nH]1 | 11.6%
71 | CC1CC(C)CN(C(=O)CSc2nnc(-c3ccco3)o2)C1 (centres unmarked) | 1.93%
72 | Cc1nnc(NC(=O)CSc2nnc(CNC(=O)c3ccccc3)o2)s1 | 12.5%
73 | Cc1ccc(SCC(=O)c2cc(C)c(O)c(C)c2)cc1 | -3.19%
74 | CCOC(=O)c1cn2nc(Oc3ccccc3)ccc2n1 | -12.8%
75 | COCCN(C(=O)CNC(=O)c1ccco1)C(C(=O)NC1CCCC1)c1cccc(OC)c1 (centres unmarked) | 16.8%
76 | O=C(NNC(=O)C12CC3CC(CC(O)(C3)C1)C2)c1ccccc1O | 2.56%
77 | CN(C(=O)COc1ccccc1)c1nnc(-c2cccnc2)s1 | -7.56%
78 | CCCCNC(=O)CSc1nnc(-c2ccco2)n1C | -1.72%
79 | CC(=O)Nc1ccc(C(=O)N(C)C(C(=O)Nc2ccccc2)c2ccccn2)cc1 (centres unmarked) | -7.53%
80 | COCCn1c(-c2cc(OC)c(OC)c(OC)c2)nc2oc3ccccc3c(=O)c2c1=O | 4.4%
81 | Cc1ccc(OCCCC(=O)Nc2cc(Cl)ccc2-n2cncn2)cc1 | -22.4%
82 | COc1ccccc1NC(=O)C(C)Sc1nnnn1C (centres unmarked) | 4.37%
83 | CC(C)C(NC(=O)CN1C(=O)c2ccccc2C1=O)c1ccccc1 (centres unmarked) | 18.9%
84 | N/C(Cc1ccc([N+](=O)[O-])cc1)=N\OC(=O)c1ccc([N+](=O)[O-])cc1 | -57.6%
85 | COc1ccc(Cl)cc1C(=O)NNC(=O)c1cccnc1 | -7.45%
86 | O=C(CSc1nnc(NC(=O)C2CC2)s1)NCc1ccco1 | -4.21%
87 | N#CCCn1cc(C(N)=O)c(-c2ccc3ccccc3c2)n1 | 13.5%
88 | COc1ccc(/C=C/C(=O)NCC2COc3ccccc3O2)cc1OC (centres unmarked) | -17%
89 | CCN(CC(=O)Nc1cc(S(=O)(=O)N2CCCCC2)ccc1Cl)Cc1ccccc1 | 14.3%

— PMC4336329 (PLoS ONE, 2015)
